Source: the supplement of paper PMC11876631
± gives the standard deviation of the averaged measurements. Laboratory Escherichia coli strains with one amino-acid change in an essential protein, pooled on minimal glucose agar with carbenicillin or gentamicin at twice the control MIC (plus kanamycin and chloramphenicol for the plasmids), 48 h. Fold change of barcode share against drug-free plates; higher = less susceptible. Active = above 20 in both replicates (the paper's putatively resistant). '<' = one read or none on drug, '>' = one read or none on a drug-free plate. Shares are relative, so most strains fall below 1 when a few take over. Listed are strains with at least 15 reads on both drug-free plates, and hits; most hits rest on fewer reference reads. Replicate rank correlation about 0.5. Edits are read from barcodes.

B1: lexA; numbered along this chain (parent)
chain: MKALTARQQEVFDLIRDHISQTGMPPTRAEIAQRLGFRSPNAAEEHLKALARKGVIEIVSGASRGIRLLQEEEEGLPLVGRVAAGEPLLAQQHIEGHYQVDPSLFKPNADFLLRVSGMSMKDIGIMDGDLLAVHKTQDVRNGQVVVARIDDEVTVKRLKKQGNKVELLPENSEFKPIVVDLRQQSFTIEGLAVGVIRNGDWL
B2: yrfF; numbered along this chain (parent)
chain: MSTIVIFLAALLACSLLAGWLIKVRSRRRQLPWTNAFADAQTRKLTPEERSAVENYLESLTQVLQVPGPTGASAAPISLALNAESNNVMMLTHAITRYGISTDDPNKWRYYLDSVEVHLPPFWEQYINDENTVELIHTDSLPLVISLNGHTLQEYMQETRSYALQPVPSTQASIRGEESEQIELLNIRKETHEEYALSRPRGLREALLIVASFLMFFFCLITPDVFVPWLAGGALLLLGAGLWGLFAPPAKSSLREIHCLRGTPRRWGLFGENDQEQINNISLGIIDLVYPAHWQPYIAQDLGQQTDIDIYLDRHVVRQGRYLSLHDEVKNFPLQHWLRSTIIAAGSLLVLFMLLFWIPLDMPLKFTLSWMKGAQTIEATSVKQLADAGVRVGDTLRISGTGMCNIRTSGTWSAKTNSPFLPFDCSQIIWNDARSLPLPESELVNKATALTEAVNRQLHPKPEDESRVSASLRSAIQKSGMVLLDDFGDIVLKTADLCSAKDDCVRLKNALVNLGNSKDWDALVKRANAGKLDGVNVLLRPVSAESLDNLVATSTAPFITHETARAAQSLNSPAPGGFLIVSDEGSDFVDQPWPSASLYDYPPQEQWNAFQKLAQMLMHTPFNAEGIVTKIFTDANGTQHIGLHPIPDRSGLWRYLSTTLLLLTMLGSAIYNGVQAWRRYQRHRTRMMEIQAYYESCLNPQLITPSESLIE

Variants of: B1
Test: barcode share on antibiotic plates over drug-free plates; higher = less susceptible
Details: with Escherichia coli (laboratory strain); antibiotic: gentamicin; 2× MIC (MIC 0.45 µg/mL)
Method: (§1)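 A pool of E. coli strains, each edited to carry one amino-acid change in an essential protein, was grown for 48 h on minimal glucose agar with or without antibiotic; strain barcodes were sequenced; mean of two replicates.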

| Variant | fold change of barcode share |
| --- | --- |
| I196P | < 0.0127 |
| I196Q | < 0.0124 |
| I196W | 0.0224 ± 0.021 |
| V82A | < 0.00781 |
| V82P | < 0.0121 |
| V82Q | < 0.0161 |
| V82W | < 0.0155 |
| I31A | < 0.00619 |
| V193D | < 0.0178 |
| V193A | 0.00607 ± 0.00056 |
| V193W | 0.0316 ± 0.0079 |
| V193Q | < 0.0143 |
| V193P | < 0.00789 |
| L47A | 0.0185 ± 0.016 |
| L47W | < 0.0184 |
| L47D | < 0.00901 |
| L47Q | 0.0167 ± 0.0003 |
| L47P | < 0.00882 |
| V144W | 0.00755 ± 0.0032 |
| V144P | 0.013 ± 0.0033 |
| V155D | < 0.0147 |
| V155P | < 0.0153 |
| V155A | < 0.00938 |
| V155W | < 0.00964 |

Same assay, conditions: with Escherichia coli (laboratory strain); antibiotic: carbenicillin; 2× MIC (3.1 µg/mL)

| Variant | fold change of barcode share |
| --- | --- |
| I196W | 0.736 ± 0.69 |
| V82A | 0.398 ± 0.13 |
| V82Q | 0.241 ± 0.076 |
| I31A | 0.325 ± 0.079 |
| V193D | 0.219 ± 0.089 |
| V193A | 0.3 ± 0.13 |
| V193W | 0.432 ± 0.0079 |
| V193Q | 0.228 ± 0.14 |
| V193P | 0.277 ± 0.18 |
| L47A | 1.39 ± 1.8 |
| L47W | 0.403 ± 0.073 |
| L47D | 0.557 ± 0.52 |
| L47Q | 0.392 ± 0.1 |
| L47P | 0.407 ± 0.35 |
| V144P | 0.257 ± 0.15 |
| V155D | 0.802 ± 0.92 |
| V155P | 0.203 ± 0.16 |
| V155A | 1.62 ± 0.094 |
| V155W | 0.107 ± 0.0074 |

Variants of: B2
Test: as above
Details: with Escherichia coli (laboratory strain); antibiotic: carbenicillin; 2× MIC (3.1 µg/mL)
Method: as §1

| Variant | fold change of barcode share |
| --- | --- |
| L112Q | 0.263 ± 0.04 |
| L112W | 0.565 ± 0.18 |
| L112A | 0.294 ± 0.1 |
| L112D | 0.651 ± 0.25 |
| V53W | 0.708 ± 0.17 |

Same assay, conditions: with Escherichia coli (laboratory strain); antibiotic: gentamicin; 2× MIC (MIC 0.45 µg/mL)

| Variant | fold change of barcode share |
| --- | --- |
| L112Q | 0.199 ± 0.27 |
| L112W | 0.0141 ± 0.011 |
| L112A | 0.00787 ± 0.007 |
| L112D | 7.07 ± 9.6 |
| L112P | > 214 [active] |
| W123D | 0.019 ± 0.019 |
| W123A | 0.00885 ± 0.0031 |
| V53W | < 0.00828 |
